# Experimental data from the supplement of paper PMC11417369.
# ± gives the standard deviation of the averaged measurements. Some of the results follow.
# Test system: PfAP2-EXP AP2 domain (GST-tagged)
# Assay: gcPBM binding intensity (ln(normalized median fluorescence intensity)); higher = stronger DNA binding
# Procedure, shortened: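 In this array assay, P. falciparum DNA-binding domains with a GST tag, expressed in E. coli, were applied for 1 h to primer-extended double-stranded 36-bp intergenic genomic probes and negative controls on an Agilent 4 × 180k array. Bound protein was visualised with Alexa488 anti-GST antibody at 488 nm. Binding intensity is the highest Masliner-normalised natural-log median intensity across replicate spots of either probe orientation.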
row,Sequence,gcPBM binding intensity (ln)
1,TATACCTTAATATACACACATACATATATATATATA [CACACA_site1339],9.96 ± 0.54
2,GGGGAAAAAGCAGGTTGTACAGTGATGTCCATATAA [XGTACX_site7606],8.77 ± 0.32
3,TAACAAAGTAAAAGAACATGCAAACACGCACACAGA [TGCATGCA_site374],9.02 ± 0.2
4,AGTGTATTAAATTTTGAACACACAAAATAAAACATA [CACACA_site8483],8.54 ± 0.29
5,TTTTAATTTAAAAATTAATTTATATATATATATATA [TGCATGCA_negctrl_site447],10.3 ± 1
6,TTTAGACTTTTCTATAGTACATATTATATATATATA [XGTACX_site6532],9.66 ± 0.2
7,AAACGTTTATTTTATTGTACATATGAAAAATGCTTC [XGTACX_site6896],8.68 ± 0.36
8,AACATTATCAAATAAACCATAAATCAATTCAATATG [CACACA_negctrl_site696],8.47 ± 0.2
9,AAAAAAAAAAAAAATTGTACGGATTCTTTTTTTTTT [XGTACX_site2898],8.4 ± 0.39
10,ATATTTTTTTTTTTCACACACATTTAGATTGTATTA [CACACA_site3137],8.65 ± 0.54
11,TTGTATAAAAAACTAAAAAATATAAAATAATAAGTG [CACACA_negctrl_site1704],8.62 ± 0.45
12,ATTACATTTTTGTTTTGTACATATATTTTATAAACA [XGTACX_site494],8.78 ± 0.37
13,CGTAATAATTAATGTTGTACCCACCAAAAAAATTAA [XGTACX_site8592],8.49 ± 0.26
14,TTGTTTTGTAATAAAAAAAAAATAATATAATATAAT [XGTACX_negctrl_site300],8.2 ± 0.3
15,TATATTTATATATATACACACATAATAAAAAATATA [CACACA_site844],8.35 ± 0.38
16,TTTATAGTTTTAAACAAAGTAATACAAATGTATATA [CACACA_negctrl_site1716],8.24 ± 0.37
17,GAAATATTGAAACACACACACAAACATATATATATA [CACACA_site1911],9.89 ± 0.11
18,TATAAAAAAAATAAAATAAAATAAAATAGAAAAATA [TGCATGCA_negctrl_site109],8.54 ± 0.5
19,GAAAAAAAAAAAAAAAGTACATTCTCTATTTCATGT [XGTACX_site3209],7.96 ± 0.34
20,ATAAATTTAAATAGGAGTACACAGCTTTATATTTTG [XGTACX_site4176],8.62 ± 0.39
21,TAATTACCATATGGTACACACATATTTATAGGTATA [CACACA_site7603],8.57 ± 0.32
22,ACGTATAATATGTACACACACATATATACCAAAAAA [CACACA_site4661],8.47 ± 0.42

row,Sequence,gcPBM binding intensity (ln)
1,GATAAAATAATATATAGTACTTTTTTAAAATAAATA [XGTACX_site522],8.06 ± 0.2
2,CGCGCACCCAGACACACACACACACCCATATATATA [CACACA_site2203],8.9 ± 0.3
3,AATTTTAAATTTAATTTACACACTTTTCATAGCATT [CACACA_site9264],8.46 ± 0.47
4,TATAAAACACACACACATATATATATATATTTATAT [TGCATGCA_negctrl_site48],8.65 ± 0.54
5,ATTTACAAAAATTTTGTATAAAGGGATTTTAAAATG [TGCATGCA_negctrl_site350],8.8 ± 0.81
6,GACAACGTTTCAATGTGTACATATTTATAATATATA [XGTACX_site2427],8.54 ± 0.31
7,TTTTTTTTTTCTCCTGCATGCAGCATTTATATATTA [TGCATGCA_site390],10.3 ± 0.13
8,TATATATATATATATACATGCATTTTTGTTTGCTTA [TGCATGCA_site256],10.1 ± 0.29
9,TATATATATATATGTACACACATCAATCATATTAAC [CACACA_site1946],10.2 ± 0.18
10,ATTGAAAAACCGTTTAGTACATATCATCACGTTTGT [XGTACX_site1295],8.43 ± 0.35
11,TAAAATAAAATAAGTAGTACATATATAATTATATAT [XGTACX_site6733],8.46 ± 0.3
12,AAAATACGAATATAAACATGCACCATATAGAACAAA [TGCATGCA_site925],9.38 ± 0.028
13,TTTTTTTTTTTTTTTACACACTGCATACAAGAAAAA [CACACA_site5642],8.46 ± 0.54
14,TTTTTACAAAAAAAAAAAAAAAAAATAAAAATAAAT [CACACA_negctrl_site1738],8.05 ± 0.69
15,TACAAATATAGATGCACACACATATACATACCTATA [CACACA_site7094],8.64 ± 0.28
16,AAAACAAACAAAAAAAAAAAAAAAAATATCAATCTA [TGCATGCA_negctrl_site203],7.89 ± 0.5
17,TGAACATCATTTTTATGTACACACACATATACGTTG [XGTACX_site3864],8.7 ± 0.34
18,GACGTGGAAAAAAAAACACACACAAAAAAAAAAAAA [CACACA_site9324],8.22 ± 0.46
19,ATATATCATGCCAAGGGTACAAATGTGTAGTTGAAA [XGTACX_site2820],8.88 ± 0.33
20,TTTTTTAAATATTATTTTTATGAGTAAATATATTAT [GTGCAC_negctrl_site277],8.06 ± 0.48
21,GTACAAAATTGACAAGTGCAAAAATTAAAAGCAAGA [GTGCAC_site9838],9.15 ± 0.25
22,AAAGTATATAGGATACGTACATACATAAATAAATAA [XGTACX_site8216],8.84 ± 0.4

row,Sequence,gcPBM binding intensity (ln)
1,TATAAAAATAAGCACACACACAAATATAGATTTATT [CACACA_site6558],8.57 ± 0.45
2,GTGTGAGCACATTCGGGAGAGTTTTTTTTTTTTTTT [CACACA_negctrl_site1776],8.48 ± 0.23
3,ATATATATATAAATATGTACATATATTTATTTCTTT [XGTACX_site3784],9.55 ± 0.2
4,TATATTCAAAATGGTACACACAATATTTAATTGTGC [CACACA_site2631],8.35 ± 0.43
5,ACATTTTCTTATAAATGTACATATATATTATTATAT [XGTACX_site4404],8.43 ± 0.29
6,TGACATATAAAATATTCACACACAAGTTATAGTTCT [CACACA_site9209],8.23 ± 0.49
7,TTAATAGAAATACGTGCACACTAAAGGGAAAACAAT [CACACA_site4923],9.31 ± 0.43
8,ACAAGTATTAATTACACACTCAAAAAGAAAAAACAA [CACACA_site2281],8.53 ± 0.6
9,ATATATTCTATATATACATGCATATATATTATATGT [TGCATGCA_site185],8.54 ± 0.23
10,ATGCAACTATATATATATATTATATGTATGAATAAT [XGTACX_negctrl_site434],8.53 ± 0.43
11,GTTAAATGAAAATATGTACACACTTGAAAATTTTTA [CACACA_site2924],8.6 ± 0.4
12,TGAATAAATATGCAGCGTACATAATCCTCTTAAAAT [XGTACX_site8462],8.38 ± 0.28
13,AAAGATTTAATCTATACATGCAAATATATAGAAAAG [TGCATGCA_site373],8.85 ± 0.28
14,AATAAAAATAGGAAATGTACACATATATATATATAT [XGTACX_site1853],10.2 ± 0.64
15,TATATATACACACACACATGCATGCCGATATATATA [TGCATGCA_site29],9.48 ± 0.15
16,AAAAGATATTTGAATATACACACGATTTAAATTTAA [CACACA_site3865],8.44 ± 0.39
17,GAACAAAATTTTATATGTACATAATATTTATATATA [XGTACX_site3667],8.64 ± 0.29
18,AGATGCCAAGTATAAAGTACATATCAAAATGTATAT [XGTACX_site456],8.48 ± 0.38
19,TTATTTTATTTTTATACACACATGTTTTAATGTTCA [CACACA_site249],8.76 ± 0.35
20,TTTATAATTCCATAATGTACAAATAAAATAAAAAAT [XGTACX_site663],8.74 ± 0.35
21,AAAACTTTTAAAATTTTGTATTCATTCCTTCAACAA [GTGCAC_negctrl_site697],8.49 ± 0.38
22,AAAATTAATGTTGGTTGTACAAAAATTAAATATGGT [XGTACX_site66],9.28 ± 0.8

row,Sequence,gcPBM binding intensity (ln)
1,AGGAGGATAGTTCACAGTACCCAGTAACTCTACGAG [XGTACX_site2008],8.31 ± 0.57
2,GTACAAAGGACTATACATAGAAAAATATATATATAT [XGTACX_negctrl_site164],9.86 ± 0.23
3,AATACATTTATGAGCTGTACACATTTATTTGAGCTA [XGTACX_site7695],8.51 ± 0.27
4,AAAGTAACACACTAATATTTTAACAAATAATATATA [GTGCAC_negctrl_site132],8.26 ± 0.43
5,ATATATATTAATATTTGTACATAAAATTATTTCAAT [XGTACX_site5364],8.49 ± 0.29
6,AGTGTAATTTTCCACTGTACTTTTCTTGTATATAAT [XGTACX_site4201],8.68 ± 0.35
7,ATACAAAAAATCACATGTACATATTCTTAAATGGTA [XGTACX_site8502],8.47 ± 0.35
8,AATAATAATTTGAATACACACAATAATATATATATA [CACACA_site2059],9.62 ± 0.5
9,TACCTTTCTTATTATTGAAAAGGAATATATAAATAG [CACACA_negctrl_site272],8.32 ± 0.37
10,TTATATCATTTTCCTGCACACATAAATTTATATAAT [CACACA_site8257],8.9 ± 0.38
11,ACAAAATATACAAAATGTACAAAATATACAAAATGT [XGTACX_site6467],8.51 ± 0.16
12,TTATTCTAAAAGTGTTTGCACTTTTATAATCATATA [GTGCAC_site9929],8.13 ± 0.13
13,TATACAGATAAATACACACACACATATATATATATA [CACACA_site4845],10.1 ± 0.14
14,CATATGTATTTATTCACACATATATATATATATATA [CACACA_site4207],10.2 ± 0.4
15,TATATAAAATAATAATGTACTCATTAAAATTATAGA [XGTACX_site4507],8.14 ± 0.34
16,ATGTATCCAATAGGAGTGCATAATTCTATTAACACC,8.39 ± 0.3
17,AAAGAAAAAAAAAAAAAAAAAAAAAAAATTATACAT [CACACA_negctrl_site7],8.09 ± 0.56
18,ATATATATATATATATGTACATATATTCGATTATTA [XGTACX_site557],10.29 ± 0.049
19,ATAATATTTCTTACCTTTGGATGTTCTAATTTTTTT [CACACA_negctrl_site1317],8.85 ± 0.5
20,TACATATTGCACAAATAAAAAAGAACAAAAAAAAAA [CACACA_negctrl_site1200],8.62 ± 0.38
21,GAATTTCGATATATGTGTACGCATTTGTATTATAGG [XGTACX_site6332],8.88 ± 0.52
